These results are taken from article PMC4336329 (PLoS ONE, 2015).

Hit rate of the full screen: of about 310,000 compounds, about 14,000 (4.5%) showed an effect of 50% or more. The effect is printed as a negative number. The list shows a part of the results.
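Further: peak tail current of the secondary pulse compared with the same well before compound.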

In this assay the target is human ether-à-go-go-related gene (hERG) potassium channel (human, UniProt Q12809). Description: primary screen, population patch clamp on CHO cells stably expressing hERG.
Sequence of human ether-à-go-go-related gene (hERG) potassium channel (Q12809 whole entry, looked up): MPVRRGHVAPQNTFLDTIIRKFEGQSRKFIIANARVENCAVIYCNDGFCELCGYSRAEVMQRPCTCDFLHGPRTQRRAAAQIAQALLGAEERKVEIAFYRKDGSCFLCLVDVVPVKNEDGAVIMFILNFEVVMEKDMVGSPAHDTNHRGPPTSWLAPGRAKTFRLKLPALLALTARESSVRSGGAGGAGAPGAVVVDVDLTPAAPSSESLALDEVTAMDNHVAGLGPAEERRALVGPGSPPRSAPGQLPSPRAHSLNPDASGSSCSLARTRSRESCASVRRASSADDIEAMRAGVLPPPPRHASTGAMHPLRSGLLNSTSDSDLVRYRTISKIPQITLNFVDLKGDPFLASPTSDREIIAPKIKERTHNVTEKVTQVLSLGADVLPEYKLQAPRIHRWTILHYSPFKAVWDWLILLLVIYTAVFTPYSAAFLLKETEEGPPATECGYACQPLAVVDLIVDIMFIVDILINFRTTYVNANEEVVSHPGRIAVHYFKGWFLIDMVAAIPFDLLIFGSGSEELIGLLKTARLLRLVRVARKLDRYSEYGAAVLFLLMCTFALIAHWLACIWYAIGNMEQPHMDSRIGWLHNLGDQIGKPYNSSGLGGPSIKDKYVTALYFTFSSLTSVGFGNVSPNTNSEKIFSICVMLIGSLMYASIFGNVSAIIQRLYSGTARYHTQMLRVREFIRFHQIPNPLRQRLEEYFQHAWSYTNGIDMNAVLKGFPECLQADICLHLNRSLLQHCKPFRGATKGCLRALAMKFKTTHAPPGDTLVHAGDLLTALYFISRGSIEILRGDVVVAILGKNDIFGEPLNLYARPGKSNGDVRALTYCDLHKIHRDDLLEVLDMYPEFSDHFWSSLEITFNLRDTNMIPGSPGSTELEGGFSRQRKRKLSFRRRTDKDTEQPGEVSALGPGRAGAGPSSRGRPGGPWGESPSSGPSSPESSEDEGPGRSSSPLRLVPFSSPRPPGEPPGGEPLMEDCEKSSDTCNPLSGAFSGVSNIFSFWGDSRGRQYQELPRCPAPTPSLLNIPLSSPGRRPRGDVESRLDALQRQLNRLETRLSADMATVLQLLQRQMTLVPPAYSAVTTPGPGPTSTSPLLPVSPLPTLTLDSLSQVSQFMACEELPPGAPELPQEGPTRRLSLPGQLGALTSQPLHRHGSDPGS
`c1ccc(CCNc2ncnc3scc(C4COc5ccccc5O4)c23)cc1` (stereo not shown): the “hERG current change (%, negative = inhibition) at 10uM” value is given as 17.9%.

For `CC1CCN(S(=O)(=O)c2cccc(C(N)=O)c2)CC1`, the “hERG current change (%, negative = inhibition) at 10uM” value was -8.19%.

For the compound `CCCCOc1ccc(CSc2nncn2N)cc1`, the “hERG current change (%, negative = inhibition) at 10uM” value is given as -1.59%.

Take `O=C(Nc1ccc(Cl)cc1)Nc1csc([N+](=O)[O-])c1`: the “hERG current change (%, negative = inhibition) at 10uM” value was found to be 16.5%.

Turning to `S=C(NCc1ccco1)N1CCN(C/C=C/c2ccccc2)CC1`, the “hERG current change (%, negative = inhibition) at 10uM” value is recorded as -56.2%.

Consider `O=c1nc(/C=C/c2cc([N+](=O)[O-])ccc2Cl)cc(C(F)(F)F)[nH]1`, for which the “hERG current change (%, negative = inhibition) at 10uM” value turned out to be 18.8%.

Take `Cc1ccc(NC(=O)C2=C(O)c3sccc3N(C)S2(=O)=O)cc1`: the “hERG current change (%, negative = inhibition) at 10uM” value is recorded as 24.3%.

In the case of `COc1ccc(CCNC(=O)c2ccc(CN3CCC(Cc4ccccc4)CC3)cc2)cc1`, the “hERG current change (%, negative = inhibition) at 10uM” value is -15.6%.

On to `Nc1nnc(-c2ccc(F)cc2)s1`, for which the “hERG current change (%, negative = inhibition) at 10uM” value is listed as -8.65%.

Consider `COc1ccc(OC)c(NC(=S)NCc2cccs2)c1`, for which the “hERG current change (%, negative = inhibition) at 10uM” value is reported as -18.3%.

For `COc1ccc(S(=O)(=O)NC2CCCCC2)cc1C(=O)N1CCCCC1`, the “hERG current change (%, negative = inhibition) at 10uM” value was -8.48%.

Regarding `Cc1nnc(SCC(=O)NNC(=O)c2ccc(Br)cc2)n1C`, the “hERG current change (%, negative = inhibition) at 10uM” value was 48.2%.

With `O=C1c2oc3ccc(F)cc3c(=O)c2C(c2cccc(O)c2)N1CCCN1CCOCC1` (stereo not shown), the “hERG current change (%, negative = inhibition) at 10uM” value was determined as 7.49%.

For the compound `Cc1cc2[nH]c(=O)c(=O)[nH]c2cc1S(=O)(=O)Nc1ccccc1F`, the “hERG current change (%, negative = inhibition) at 10uM” value came out at 1.78%.

With `COc1cccc(C(=O)O/N=C(\N)c2ccccn2)c1`, the “hERG current change (%, negative = inhibition) at 10uM” value is -2.49%.

Turning to `Cc1ccc(O)c(C(=O)c2cc(C#N)c(=O)n(-c3c(C)n(C)n(-c4ccccc4)c3=O)c2)c1`, the “hERG current change (%, negative = inhibition) at 10uM” value was -18.6%.

With `O=C(O)C1C2CCCCC2=C2CCCCC2C1C(=O)c1ccccc1` (stereo not shown), the “hERG current change (%, negative = inhibition) at 10uM” value is reported as -2.74%.

Turning to `O=C(NCCc1ccc(Cl)cc1)c1ncn[nH]1`, the “hERG current change (%, negative = inhibition) at 10uM” value is 7.32%.

For `Br.CCOCc1cn(CC(=O)c2ccc(Cl)cc2)c(C)nc1=N`, the “hERG current change (%, negative = inhibition) at 10uM” value turned out to be 5.78%.

On to `O=C(Nc1nnc(S(=O)(=O)N2CCOCC2)s1)c1ccc(F)cc1`, for which the “hERG current change (%, negative = inhibition) at 10uM” value is on record as -0.815%.

For `COc1cccc(NC2=NC3(CCCCC3)N=C(N)N2)c1`, the “hERG current change (%, negative = inhibition) at 10uM” value turned out to be 22.8%.

With `Cc1nn(CC(=O)Nc2ccncc2)c(C)c1[N+](=O)[O-]`, the “hERG current change (%, negative = inhibition) at 10uM” value is listed as 1.23%.

Take `CCOc1ccccc1N(CC(=O)NCC1CCCO1)C(=O)CNS(=O)(=O)c1ccccc1` (stereo not shown): the “hERG current change (%, negative = inhibition) at 10uM” value worked out at 7.35%.

With `COc1ccc(OCCN2CCN(C(=O)c3ccc(OC)c(OC)c3)CC2)cc1`, the “hERG current change (%, negative = inhibition) at 10uM” value is on record as -58.8%.

In the case of `O=S(=O)(c1cccc(C(F)(F)F)c1)N1CCC(c2cc(-c3cccc4ccccc34)n[nH]2)CC1`, the “hERG current change (%, negative = inhibition) at 10uM” value is on record as 11.4%.

`Nc1nc(CN2CCN(Cc3ccccc3)CC2)nc(Nc2ccccc2)n1`: the “hERG current change (%, negative = inhibition) at 10uM” value is listed as -66.2%.

Regarding `O=C(CN1CCN(c2ccccn2)CC1)Nc1cc(C(F)(F)F)ccc1Cl`, the “hERG current change (%, negative = inhibition) at 10uM” value is reported as -3.6%.

In the case of `O=C1C2CC=CCC2C(=O)N1CNc1ccccc1` (stereo not shown), the “hERG current change (%, negative = inhibition) at 10uM” value was found to be 14.7%.

As for `CCc1ccccc1NC(=O)Cn1nc(C(F)(F)F)cc1C1CC1`, the “hERG current change (%, negative = inhibition) at 10uM” value is listed as 11.9%.

On to `Cc1csc(NC(=O)CCSCCc2ccccn2)n1`, for which the “hERG current change (%, negative = inhibition) at 10uM” value is listed as -9.48%.

In the case of `Cc1ccc(S(=O)(=O)NCC(=O)N(CC(=O)NC(C)(C)C)Cc2cccs2)cc1`, the “hERG current change (%, negative = inhibition) at 10uM” value worked out at 2.83%.

Consider `COCCCNC(=O)CCS(=O)(=O)Cc1ccc(C)cc1`, for which the “hERG current change (%, negative = inhibition) at 10uM” value was -11.7%.

Take `CS(=O)(=O)O.NC(=Nc1ccccc1)NC(=O)c1nc(Cl)c(N)nc1N`: the “hERG current change (%, negative = inhibition) at 10uM” value is listed as -50%.

Consider `CC(=O)Nc1c(O)c2cccc3c2n(c1=O)CCC3`, for which the “hERG current change (%, negative = inhibition) at 10uM” value is reported as 15.6%.

On to `C=CCSc1nnc(-c2ccccc2NC(C)=O)c(=O)[nH]1`, for which the “hERG current change (%, negative = inhibition) at 10uM” value is on record as -3.84%.

`CN1CCC(=NNC(=O)CSc2ccc(Cl)cc2)CC1`: the “hERG current change (%, negative = inhibition) at 10uM” value came to 9.84%.

Take `CCCCCCCOc1ccc(C2CC(=O)N(C)C2=O)cc1` (stereo not shown): the “hERG current change (%, negative = inhibition) at 10uM” value is given as 4.77%.

On to `O=C(O)C(=O)O.OCCNCCSc1nc(C2CCCCC2)n(-c2ccccc2Cl)n1`, for which the “hERG current change (%, negative = inhibition) at 10uM” value is -8.25%.

In the case of `Cc1cc(C)n(C2CCCCC2OC(=O)c2ccccc2F)n1` (stereo not shown), the “hERG current change (%, negative = inhibition) at 10uM” value is 6.23%.

`COc1ccc(N2CCN(C(=O)CCc3nnc4ccc(N5CCC(C)CC5)nn34)CC2)cc1`: the “hERG current change (%, negative = inhibition) at 10uM” value was -66.1%.

Consider `CC1(C)SC[C@H](C(=O)Nc2cccc(Cl)c2)N1C=O`, for which the “hERG current change (%, negative = inhibition) at 10uM” value is listed as 7.87%.

Take `S=C1N[C@H]2CCCC[C@@H]2N1`: the “hERG current change (%, negative = inhibition) at 10uM” value is 17.7%.

Turning to `C/C(Cn1nc([N+](=O)[O-])cc1C)=N\NC(=O)c1cccc(Br)c1`, the “hERG current change (%, negative = inhibition) at 10uM” value is listed as -20.5%.

`CC(Sc1nnc2ccccn12)C(=O)Nc1ccc(Cl)cn1` (stereo not shown): the “hERG current change (%, negative = inhibition) at 10uM” value was -1.5%.

In the case of `COc1cccc(/C=N\NS(=O)(=O)c2ccccc2)c1OC`, the “hERG current change (%, negative = inhibition) at 10uM” value came to 12%.

For `Cn1c(=O)n(CC(=O)NC2CCCCC2)c(=O)c2ccccc21`, the “hERG current change (%, negative = inhibition) at 10uM” value is 2.25%.
